The source of these data is a collection of fitness landscapes (doi:10.1038/s41467-024-54723-y).

Whole data set: some 18,000 sequences, median “TetR repression strength (sort-seq, GFP reporter)” near 0.23, cut for the highest 2% near 0.68. This is one part of the list.

UniProt P04483, sequence (P04483 whole entry): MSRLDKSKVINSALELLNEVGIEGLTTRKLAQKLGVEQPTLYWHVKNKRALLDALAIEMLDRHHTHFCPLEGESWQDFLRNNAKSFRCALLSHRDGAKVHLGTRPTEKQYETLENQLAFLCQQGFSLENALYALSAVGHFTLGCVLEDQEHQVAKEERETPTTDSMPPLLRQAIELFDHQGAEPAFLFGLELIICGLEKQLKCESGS

This assay has as its target TetR (class B, Tn10) (UniProt P04483). As to the kind of experiment: TetR repression strength (sort-seq, GFP reporter) (relative to tetO2 = 1); higher = stronger repression. The conditions noted are these: E. coli. In a few lines:
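Escherichia coli SIG10-MAX cells carried a low-copy plasmid library in which eight operator positions were randomized between a constitutive promoter and sfGFP, and TetR was expressed constitutively. After 5 h of growth at 37 °C in LB with 50 µg/mL chloramphenicol, 10^6 cells were FACS-sorted into 13 fluorescence bins, and each bin was Illumina-sequenced. Repression strength was the top bin index plus one minus the read-weighted mean bin, divided by the value for the unaltered operator. Across three independent transformations, only library members with ≥30 reads in every replicate and a CV ≤0.5 were averaged.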
Turning to TCCCCGACAGTAACCGAGA, the TetR repression strength turned out to be 0.0705.

In the case of TCCCTGCAAGTCGGTGAGA, the TetR repression strength amounted to 0.214.

In turn, TCCCGACAAGTGAGAGAGA came in with a TetR repression strength of 0.33.

On to TCCCGTCGAGTAGAAGAGA, for which the TetR repression strength came to 0.334.

TCCCGTTAAGTAGACGAGA showed a TetR repression strength of 0.104.

Take TCCCACCGAGTAGTGGAGA: the TetR repression strength amounted to 0.0853.

Sequence TCCCATGAAGTATAAGAGA displayed a TetR repression strength of 0.167.

TCCCCGTAAGTAGACGAGA came in with a TetR repression strength of 0.00797.

Consider TCCCTCTTAGTCAAGGAGA, for which the TetR repression strength was 0.181.

The sequence TCCCCGGTAGTACTAGAGA showed a TetR repression strength of 0.183.

Sequence TCCCGGTGAGTAGTCGAGA yielded a TetR repression strength of 0.109.

Sequence TCCCTAATAGTAACGGAGA came in with a TetR repression strength of 0.207.

The sequence TCCCTCTCAGTTAAGGAGA gave a TetR repression strength of 0.234.

TCCCGCCCAGTTATCGAGA displayed a TetR repression strength of 0.362.

Regarding TCCCAGTGAGTTGACGAGA, the TetR repression strength stood at 0.266.

Turning to TCCCTCGTAGTGATCGAGA, the TetR repression strength came to 0.274.

For TCCCTGTAAGTCCGCGAGA, the TetR repression strength came to 0.104.

In turn, TCCCTAACAGTGATTGAGA registered a TetR repression strength of 0.745.

Consider TCCCATATAGTTAGCGAGA, for which the TetR repression strength was determined as 0.247.

TCCCTTGAAGTAGTGGAGA gave a TetR repression strength of 0.12.

With TCCCACGAAGTGCAGGAGA, the TetR repression strength is 0.0355.

TCCCTTTAAGTGGATGAGA had a TetR repression strength of 0.255.

For the sequence TCCCGATGAGTACGGGAGA, the TetR repression strength amounted to 0.208.

Turning to TCCCGAGCAGTGCCAGAGA, the TetR repression strength is 0.684.

The sequence TCCCAAGCAGTACTGGAGA gave a TetR repression strength of 0.407.

TCCCATAAAGTAGTTGAGA had a TetR repression strength of 0.0306.

Turning to TCCCGCCTAGTAGAAGAGA, the TetR repression strength is 0.218.

Turning to TCCCCGAGAGTAGTAGAGA, the TetR repression strength turned out to be 0.106.

As to TCCCCGGTAGTTAGGGAGA, the TetR repression strength turned out to be 0.00691.

Sequence TCCCGCCCAGTGTTGGAGA had a TetR repression strength of 0.535.

As to TCCCCGAAAGTGGGCGAGA, the TetR repression strength was 0.473.

Consider TCCCTCGGAGTTATAGAGA, for which the TetR repression strength turned out to be 0.381.

In turn, TCCCGGCCAGTATCAGAGA returned a TetR repression strength of 0.211.

In turn, TCCCACTGAGTTCTCGAGA yielded a TetR repression strength of 0.207.

Sequence TCCCCGGAAGTAGGAGAGA had a TetR repression strength of 0.218.

The sequence TCCCAGGCAGTAGATGAGA registered a TetR repression strength of 0.198.

TCCCTGTCAGTGGATGAGA: the TetR repression strength is 0.346.

TCCCATTAAGTTTTGGAGA displayed a TetR repression strength of 0.0357.

As to TCCCAGGGAGTGGTAGAGA, the TetR repression strength came to 0.225.

Take TCCCGCCTAGTTAACGAGA: the TetR repression strength came to 0.277.

With TCCCATGAAGTGTACGAGA, the TetR repression strength worked out at 0.181.

TCCCAGATAGTGGCGGAGA returned a TetR repression strength of 0.279.

Consider TCCCGTCCAGTCCGCGAGA, for which the TetR repression strength is 0.207.

For the sequence TCCCGATCAGTAGAGGAGA, the TetR repression strength was 0.223.

In turn, TCCCGCAGAGTCGGAGAGA gave a TetR repression strength of 0.0256.

TCCCTTGTAGTTTTAGAGA came in with a TetR repression strength of 0.479.

TCCCGTATAGTAGCAGAGA displayed a TetR repression strength of 0.187.

In turn, TCCCAGTGAGTCTCAGAGA showed a TetR repression strength of 0.229.

On to TCCCGAACAGTTCGCGAGA, for which the TetR repression strength amounted to 0.216.

The sequence TCCCCTCTAGTTGATGAGA returned a TetR repression strength of 0.207.

The sequence TCCCCCATAGTGCGGGAGA showed a TetR repression strength of 0.412.

The sequence TCCCGGGTAGTTCTGGAGA yielded a TetR repression strength of 0.

Regarding TCCCCTCTAGTCGGCGAGA, the TetR repression strength was 0.529.

Sequence TCCCGGTAAGTGACGGAGA returned a TetR repression strength of 0.215.

TCCCGTATAGTAAGGGAGA yielded a TetR repression strength of 0.115.

As to TCCCGGCAAGTAGATGAGA, the TetR repression strength is 0.264.

TCCCGTTGAGTGTAAGAGA showed a TetR repression strength of 0.277.

With TCCCGGTAAGTGCTGGAGA, the TetR repression strength amounted to 0.0785.

TCCCCTAGAGTTGGTGAGA: the TetR repression strength is 0.298.

Turning to TCCCCGGTAGTGTGGGAGA, the TetR repression strength was determined as 0.291.

In the case of TCCCATGAAGTGTGTGAGA, the TetR repression strength is 0.127.

TCCCGCTTAGTGGGTGAGA came in with a TetR repression strength of 0.179.

In the case of TCCCCTCCAGTGGTTGAGA, the TetR repression strength was found to be 0.264.

TCCCGGGGAGTAGGAGAGA returned a TetR repression strength of 0.337.

For the sequence TCCCTAAGAGTACCAGAGA, the TetR repression strength came out at 0.429.

As to TCCCGGTCAGTAATTGAGA, the TetR repression strength turned out to be 0.679.

In turn, TCCCACGCAGTAAGTGAGA returned a TetR repression strength of 0.235.

The sequence TCCCAACTAGTTTGTGAGA showed a TetR repression strength of 0.131.

As to TCCCCGTAAGTCGCTGAGA, the TetR repression strength was found to be 0.133.

On to TCCCAACGAGTAATTGAGA, for which the TetR repression strength came out at 0.12.

TCCCCAACAGTTATGGAGA registered a TetR repression strength of 0.188.

The sequence TCCCGAATAGTGCCCGAGA returned a TetR repression strength of 0.127.

Sequence TCCCATAGAGTACTGGAGA had a TetR repression strength of 0.169.

In turn, TCCCGAAGAGTGGCCGAGA had a TetR repression strength of 0.273.

TCCCTCCAAGTCTATGAGA returned a TetR repression strength of 0.192.

Regarding TCCCGTTGAGTCCGAGAGA, the TetR repression strength was found to be 0.261.

The sequence TCCCTTTCAGTTCATGAGA yielded a TetR repression strength of 0.426.

Turning to TCCCAGAAAGTGTGGGAGA, the TetR repression strength worked out at 0.176.

Sequence TCCCACGAAGTATCCGAGA displayed a TetR repression strength of 0.27.

Sequence TCCCGGTTAGTTTCTGAGA displayed a TetR repression strength of 0.259.

For the sequence TCCCGTCCAGTTCAGGAGA, the TetR repression strength was 0.229.

The sequence TCCCATGGAGTCTAAGAGA gave a TetR repression strength of 0.184.

The sequence TCCCTCCAAGTGGGAGAGA registered a TetR repression strength of 0.14.

For the sequence TCCCTGTCAGTTTTCGAGA, the TetR repression strength came out at 0.369.

Take TCCCGGACAGTTAAAGAGA: the TetR repression strength was 0.274.

Turning to TCCCTGGTAGTGAGAGAGA, the TetR repression strength was found to be 0.326.

Consider TCCCGATGAGTGGCAGAGA, for which the TetR repression strength amounted to 0.326.

For TCCCGTGTAGTAGATGAGA, the TetR repression strength is 0.0518.

As to TCCCCAATAGTGGGAGAGA, the TetR repression strength was found to be 0.0327.

Sequence TCCCTGATAGTGAGGGAGA came in with a TetR repression strength of 0.264.

The sequence TCCCTGGTAGTGTCTGAGA yielded a TetR repression strength of 0.212.

TCCCGATGAGTGCCTGAGA gave a TetR repression strength of 0.0302.

TCCCCATTAGTGGGGGAGA displayed a TetR repression strength of 0.26.

TCCCACTCAGTCTAAGAGA registered a TetR repression strength of 0.169.

TCCCGTGGAGTGTCTGAGA returned a TetR repression strength of 0.158.

Take TCCCTTTCAGTCGGTGAGA: the TetR repression strength stood at 0.596.

In turn, TCCCTCGGAGTCCAGGAGA had a TetR repression strength of 0.218.

In the case of TCCCTAGTAGTGTAAGAGA, the TetR repression strength was 0.0975.

For TCCCATAGAGTATTGGAGA, the TetR repression strength turned out to be 0.109.

TCCCGTACAGTCGGGGAGA showed a TetR repression strength of 0.698.

As to TCCCCCTAAGTAGTCGAGA, the TetR repression strength came to 0.242.

For TCCCTATTAGTCGTGGAGA, the TetR repression strength was found to be 0.153.
